# In the supplement of paper PMC8728848:
# Some of the results follow.
# B1: CPA (Cicer arietinum) (protein)
# chain: MAFSYLNLVLVTLTTLFFLQTTKVKSQKSVSFHITNFTISRPSITLQGTAEFLPNVLLLNDIEHPVFVVGRALYSKPITLWNNKTGKVASFVTSFTFDVQDLKKTVPGHGLVFFLAPSGSEIPFSSDGGNLGVVDGKNAFNRFVGVEFDNFVNSWDPKYSHVGINVNSLISTKTVKWNRVSGELVKVSIVYDSVSTTLTVIVTYKNGQISILSQLVDLKAVLPDTVNIGFSASTTLVSPRQLHNIHSWSFTSTFET
# Tests used:
# Assay in all cases: glycan array binding signal (z-score within array); higher = stronger binding
# Settings in all cases: glycan notation: IUPAC condensed, linker removed
# [1] = target: Neu5Ac(a2-6)Gal(b1-4)GlcNAc(b1-2)Man(a1-3)[Neu5Ac(a2-3)Gal(b1-4)GlcNAc(b1-2)Man(a1-6)]Man(b1-4)GlcNAc(b1-4)GlcNAc
# Procedure, shortened: (§1)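 The binding signal is a Z-score computed within each array and averaged over linkers. Arrays of the same protein sequence at different concentrations or buffers were also averaged together. Data originate from 3228 arrays in the Consortium for Functional Glycomics database, kept only where the protein sequence was available.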
# [2] = target: Neu5Ac(a2-6)Gal(b1-4)GlcNAc(b1-2)Man(a1-3)[Neu5Ac(a2-6)Gal(b1-4)GlcNAc(b1-2)Man(a1-6)]Man(b1-4)GlcNAc(b1-4)GlcNAc
# Procedure, shortened: as §1
# [3] = target: Neu5Ac(a2-6)Gal(b1-4)GlcNAc(b1-2)Man(a1-3)[Neu5Ac(a2-6)Gal(b1-4)GlcNAc(b1-2)Man(a1-6)]Man(b1-4)GlcNAc(b1-4)[Fuc(a1-6)]GlcNAc
# Procedure, shortened: as §1
# [4] = target: Neu5Ac(a2-6)Gal(b1-4)GlcNAc(b1-2)Man(a1-6)Man(b1-4)GlcNAc(b1-4)GlcNAc
# Procedure, shortened: as §1
# [5] = target: Neu5Ac(a2-6)Gal(b1-4)GlcNAc(b1-2)Man(a1-6)[Gal(b1-4)GlcNAc(b1-2)Man(a1-3)]Man(b1-4)GlcNAc(b1-4)GlcNAc
# Procedure, shortened: as §1
# [6] = target: Neu5Ac(a2-6)Gal(b1-4)GlcNAc(b1-2)Man(a1-6)[GlcNAc(b1-2)Man(a1-3)]Man(b1-4)GlcNAc(b1-4)GlcNAc
# Procedure, shortened: as §1
# [7] = target: Neu5Ac(a2-6)Gal(b1-4)GlcNAc(b1-2)Man(a1-6)[Man(a1-3)]Man(b1-4)GlcNAc(b1-4)GlcNAc
# Procedure, shortened: as §1
# [8] = target: Neu5Ac(a2-6)Gal(b1-4)GlcNAc(b1-2)[Neu5Ac(a2-6)Gal(b1-4)GlcNAc(b1-4)]Man(a1-3)[GlcNAc(b1-4)][Neu5Ac(a2-6)Gal(b1-4)GlcNAc(b1-2)[Neu5Ac(a2-6)Gal(b1-4)GlcNAc(b1-6)]Man(a1-6)]Man(b1-4)GlcNAc(b1-4)GlcNAc
# Procedure, shortened: as §1
# [9] = target: Neu5Ac(a2-6)Gal(b1-4)GlcNAc(b1-2)[Neu5Ac(a2-6)Gal(b1-4)GlcNAc(b1-4)]Man(a1-3)[GlcNAc(b1-4)][Neu5Ac(a2-6)Gal(b1-4)GlcNAc(b1-4)Man(a1-6)]Man(b1-4)GlcNAc(b1-4)GlcNAc
# Procedure, shortened: as §1
# [10] = target: Neu5Ac(a2-6)Gal(b1-4)GlcNAc(b1-2)[Neu5Ac(a2-6)Gal(b1-4)GlcNAc(b1-6)]Man(a1-6)[Neu5Ac(a2-6)Gal(b1-4)GlcNAc(b1-2)Man(a1-3)][GlcNAc(b1-4)]Man(b1-4)GlcNAc(b1-4)GlcNAc
# Procedure, shortened: as §1
# [11] = target: Neu5Ac(a2-6)Gal(b1-4)GlcNAc(b1-3)Gal(b1-3)GlcNAc
# Procedure, shortened: as §1
# [12] = target: Neu5Ac(a2-6)Gal(b1-4)GlcNAc(b1-3)Gal(b1-4)GlcNAc
# Procedure, shortened: as §1
# [13] = target: Neu5Ac(a2-6)Gal(b1-4)GlcNAc(b1-3)Gal(b1-4)GlcNAc(b1-2)Man(a1-3)[Neu5Ac(a2-6)Gal(b1-4)GlcNAc(b1-3)Gal(b1-4)GlcNAc(b1-2)Man(a1-6)]GalNAc
# Procedure, shortened: as §1
# [14] = target: Neu5Ac(a2-6)Gal(b1-4)GlcNAc(b1-3)Gal(b1-4)GlcNAc(b1-3)Gal(b1-4)GlcNAc
# Procedure, shortened: as §1
# [15] = target: Neu5Ac(a2-6)Gal(b1-4)GlcNAc(b1-3)Gal(b1-4)GlcNAc(b1-3)Gal(b1-4)GlcNAc(b1-2)Man(a1-3)[Neu5Ac(a2-6)Gal(b1-4)GlcNAc(b1-3)Gal(b1-4)GlcNAc(b1-3)Gal(b1-4)GlcNAc(b1-2)Man(a1-6)]GalNAc
# Procedure, shortened: as §1
# [16] = target: Neu5Ac(a2-6)Gal(b1-4)GlcNAc(b1-3)Gal(b1-4)GlcNAc(b1-3)GalNAc
# Procedure, shortened: as §1
# [17] = target: Neu5Ac(a2-6)Gal(b1-4)GlcNAc(b1-3)Gal(b1-4)GlcNAc(b1-3)[Neu5Ac(a2-6)Gal(b1-4)GlcNAc(b1-3)Gal(b1-4)GlcNAc(b1-6)]GalNAc
# Procedure, shortened: as §1
# [18] = target: Neu5Ac(a2-6)Gal(b1-4)GlcNAc(b1-3)Gal(b1-4)GlcNAc(b1-6)[Gal(b1-3)]GalNAc
# Procedure, shortened: as §1
# [19] = target: Neu5Ac(a2-6)Gal(b1-4)GlcNAc(b1-3)Gal(b1-4)[Fuc(a1-3)]GlcNAc(b1-3)Gal(b1-4)[Fuc(a1-3)]GlcNAc
# Procedure, shortened: as §1
# [20] = target: Neu5Ac(a2-6)Gal(b1-4)GlcNAc(b1-3)GalNAc
# Procedure, shortened: as §1
# [21] = target: Neu5Ac(a2-6)Gal(b1-4)GlcNAc(b1-3)[Neu5Ac(a2-6)Gal(b1-4)GlcNAc(b1-6)]GalNAc
# Procedure, shortened: as §1
# [22] = target: Neu5Ac(a2-6)Gal(b1-4)GlcNAc(b1-6)GalNAc
# Procedure, shortened: as §1
# [23] = target: Neu5Ac(a2-6)Gal(b1-4)GlcNAc(b1-6)[Gal(b1-3)GlcNAc(b1-3)]Gal(b1-4)Glc
# Procedure, shortened: as §1
# [24] = target: Neu5Ac(a2-6)Gal(b1-4)GlcNAc(b1-6)[Gal(b1-3)]GalNAc
# Procedure, shortened: as §1
# [25] = target: Neu5Ac(a2-6)Gal(b1-4)GlcNAc6S
# Procedure, shortened: as §1
# Neu5Ac(a2-6)GalNAc = target: Neu5Ac(a2-6)GalNAc
# Procedure, shortened: as §1
# [26] = target: Neu5Ac(a2-6)GalNAc(b1-4)GlcNAc
# Procedure, shortened: as §1
# [27] = target: Neu5Ac(a2-6)GalNAc(b1-4)GlcNAc6S
# Procedure, shortened: as §1
# [28] = target: Neu5Ac(a2-6)GlcNAc(b1-4)GlcNAc
# Procedure, shortened: as §1
# [29] = target: Neu5Ac(a2-6)GlcNAc(b1-4)GlcNAc(b1-4)GlcNAc
# Procedure, shortened: as §1
binder,measurement,setting,value
B1,glycan array binding signal (z-score),[1],-0.601
same,glycan array binding signal (z-score),[2],-0.503
same,glycan array binding signal (z-score),[3],0.327
same,glycan array binding signal (z-score),[4],-0.505
same,glycan array binding signal (z-score),[5],-0.257
same,glycan array binding signal (z-score),[6],-0.498
same,glycan array binding signal (z-score),[7],-0.538
same,glycan array binding signal (z-score),[8],-0.605
same,glycan array binding signal (z-score),[9],-0.591
same,glycan array binding signal (z-score),[10],-0.405
same,glycan array binding signal (z-score),[11],-0.331
same,glycan array binding signal (z-score),[12],-0.648
same,glycan array binding signal (z-score),[13],0.208
same,glycan array binding signal (z-score),[14],-0.108
same,glycan array binding signal (z-score),[15],2.33
same,glycan array binding signal (z-score),[16],-0.593
same,glycan array binding signal (z-score),[17],3.34
same,glycan array binding signal (z-score),[18],0.746
same,glycan array binding signal (z-score),[19],-0.338
same,glycan array binding signal (z-score),[20],-0.512
same,glycan array binding signal (z-score),[21],-0.588
same,glycan array binding signal (z-score),[22],-0.136
same,glycan array binding signal (z-score),[23],0.044
same,glycan array binding signal (z-score),[24],-0.326
same,glycan array binding signal (z-score),[25],-0.453
same,glycan array binding signal (z-score),Neu5Ac(a2-6)GalNAc,-0.383
same,glycan array binding signal (z-score),[26],1.26
same,glycan array binding signal (z-score),[27],-0.452
same,glycan array binding signal (z-score),[28],0.309
same,glycan array binding signal (z-score),[29],2.61
